Laboratory results taken from PubChem BioAssay AID1347428 (National Center for Advancing Translational Sciences (NCATS), 2020).
The whole screen tested about 91,000 compounds, of which about 290 (0.32%) were called active. The inconclusive results got no clear call from the source; some entries with a clear call stand among them for comparison. The call rests on the fitted dose curve; in most records, active means well fitted inhibition curve with a large enough effect; inconclusive means small, poorly fitted or top-dose-only effect; inactive means no such curve, though single readings can be large or run the other way. Potencies of inconclusive entries are doubtful fits and often do not repeat.

target: Single-stranded DNA cytosine deaminase (Homo sapiens) (UniProt Q9GZX7); assay: Primary qHTS assay for inhibitors of Activation Induced Cytidine Deaminase (AID): AID signal; conditions: AID deamination FRET fluorescence, UDG-coupled, 4 h; activity change, negative = inhibition: at 115 µM (top of the series); further: nearly all actives have a fitted effect of over 25% in size
On the % scale 0 is the no-effect control and ±100 the full control effect; potency means the concentration at half of the fitted maximal effect; tags describe the fitted curve by direction and shape.

Sequence of UniProt Q9GZX7 (Q9GZX7 whole entry, looked up): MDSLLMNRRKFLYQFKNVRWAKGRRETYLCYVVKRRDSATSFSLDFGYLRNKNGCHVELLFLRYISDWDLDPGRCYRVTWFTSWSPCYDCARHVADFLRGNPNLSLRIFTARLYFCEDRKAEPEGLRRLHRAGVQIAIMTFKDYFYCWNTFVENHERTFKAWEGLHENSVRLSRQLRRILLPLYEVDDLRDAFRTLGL

SMILES | Potency | activity change, negative = inhibition
O=C(/C=C/c1ccc(C(F)(F)F)cc1)c1cccc(N2CCCC2=O)c1 | inconclusive: 22.4 µM [inhibitor, partial curve, poor fit] | 
COc1ccc(NC(=O)N(CCC(C)C)C(C)c2cccs2)c(OC)c1 (stereo not drawn) | inconclusive: 56.2 µM [inhibitor, partial curve, poor fit] | 
Cc1ccc(C2CCN(C(=O)c3cnn(-c4cccc(Cl)c4)c3C3CCN(C(=O)OC(C)(C)C)CC3)C2)cc1 (stereo not drawn) | inconclusive: 50.1 µM [inhibitor, partial curve, poor fit] | 
COc1ccc(NC(=O)Cn2c(=O)c(-c3cc(C)ccc3NC(C)=O)nc3ccccc32)c(OC)c1 | inconclusive: 56.2 µM [inhibitor, partial curve, poor fit] | 
CCCNc1nc(-c2cc(C)n(NC(=O)c3nn(C)c(=O)c4ccccc34)c2C)cs1 |  | inactive: 147%
O=C(NCc1ccco1)c1ccc(Cn2c(SCc3ccc(F)cc3)nc3cccnc32)cc1 | inconclusive: 50.1 µM [inhibitor, partial curve, poor fit] | 
CN(C)CCCN1c2ccccc2Sc2ccc(Cl)cc21 |  | inactive: -12.7%
Cc1cccc(C(=O)N2CCN(c3oc(-c4cccs4)nc3C#N)CC2)c1 | inconclusive: 31.6 µM [inhibitor, partial curve, poor fit] | 
O=C(OCc1cccc(Br)c1)c1cccc(O)c1 |  | inactive: 1.74%
COc1ccccc1Nc1nc2nccc(-c3ccncc3)c2c(=O)[nH]1 | inconclusive: 63.1 µM [inhibitor, partial curve, poor fit] | 
Cc1csc(NC(=O)CSc2c3c(nc4cc(Cl)ccc24)CCCC3)n1 |  | inactive: -13.3%
O=C(CSc1nnc(-c2ccccc2)c(-c2ccccc2)n1)Nc1ccccc1Cl | inconclusive: 56.2 µM [inhibitor, partial curve, poor fit] | 
CCCCOCCCNC(=O)c1ccc2nc(C)c(C)nc2c1 |  | inactive: -4.48%
Cc1ccc(C2C=C(c3ccc(Cl)cc3)Nc3nc(NC(=O)CCC(=O)O)nn32)cc1 (stereo not drawn) | inconclusive: 112 µM [inhibitor, partial curve, poor fit] | 
O=C(CSc1nc2ccccc2n1C(F)F)c1ccc(Cl)cc1 | inconclusive: 100 µM [inhibitor, single point] | 
O=C(NC1CCOC1=O)C1CCCCC1 (stereo not drawn) |  | inactive: -3.53%
COc1ccc(S(=O)(=O)N(Cc2nc(-c3ccccc3)no2)C2CCCCC2)cc1 | inconclusive: 89.1 µM [inhibitor, partial curve, poor fit] | 
COc1cc2c(cc1OC)C(COc1ccc(F)cc1)N(C(=O)C(C)C)CC2 (stereo not drawn) | inconclusive: 79.4 µM [inhibitor, single point] | 
